Test results taken from the supplement of paper PMC8728848.
The list shows a part of the results.

Legend:
Test in all cases: glycan array binding signal (z-score within array); higher = stronger binding
Conditions in all cases: glycan notation: IUPAC condensed, linker removed
GalNAc(b1-4)GlcNAc = target: GalNAc(b1-4)GlcNAc
Summary of the method: (§1)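 Glycan array data came from 3228 arrays in the Consortium for Functional Glycomics database, and only arrays with an available protein sequence were kept. Glycan names were put into IUPAC-condensed notation, and columns mapping to the same glycan were averaged. The binding signal is a within-array Z-score, averaged across arrays of one protein sequence run at different concentrations or buffers and across linkers. A negative Z-score can be read as non-binding.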

[1] = target: GalNAc(b1-4)GlcNAc(b1-2)Man
Summary of the method: as §1

[2] = target: GalNAc(b1-4)GlcNAc(b1-2)Man(a1-3)[GalNAc(b1-4)GlcNAc(b1-2)Man(a1-6)]Man(b1-4)GlcNAc(b1-4)GlcNAc
Summary of the method: as §1

[3] = target: GalNAc(b1-4)GlcNAc(b1-3)GalNAc(b1-4)GlcNAc
Summary of the method: as §1

GalNAc(b1-4)GlcNAc6S = target: GalNAc(b1-4)GlcNAc6S
Summary of the method: as §1

GalNAc(b1-6)GalNAc = target: GalNAc(b1-6)GalNAc
Summary of the method: as §1

GalNAc3S(b1-4)GlcNAc = target: GalNAc3S(b1-4)GlcNAc
Summary of the method: as §1

GalNAc3S(b1-4)GlcNAc3S = target: GalNAc3S(b1-4)GlcNAc3S
Summary of the method: as §1

[4] = target: GalNAc3S(b1-4)[Fuc(a1-3)]GlcNAc
Summary of the method: as §1

GalNAc4S6S(b1-4)GlcNAc = target: GalNAc4S6S(b1-4)GlcNAc
Summary of the method: as §1

GalNAc6S(b1-4)GlcNAc = target: GalNAc6S(b1-4)GlcNAc
Summary of the method: as §1

Glc(a1-4)Glc = target: Glc(a1-4)Glc
Summary of the method: as §1

[5] = target: Glc(a1-4)Glc(a1-4)Glc(a1-4)Glc
Summary of the method: as §1

Glc(a1-6)Glc(a1-6)Glc = target: Glc(a1-6)Glc(a1-6)Glc
Summary of the method: as §1

[6] = target: Glc(a1-6)Glc(a1-6)Glc(a1-6)Glc
Summary of the method: as §1

Glc(b1-4)Glc = target: Glc(b1-4)Glc
Summary of the method: as §1

Glc(b1-6)Glc = target: Glc(b1-6)Glc
Summary of the method: as §1

GlcA(b1-3)Gal = target: GlcA(b1-3)Gal
Summary of the method: as §1

GlcA(b1-3)GlcNAc = target: GlcA(b1-3)GlcNAc
Summary of the method: as §1

GlcA(b1-6)Gal = target: GlcA(b1-6)Gal
Summary of the method: as §1

[7] = target: GlcA3S(b1-3)Gal(b1-4)GlcNAc(b1-2)Man
Summary of the method: as §1

[8] = target: GlcA3S(b1-3)Gal(b1-4)GlcNAc(b1-3)Gal(b1-4)Glc
Summary of the method: as §1

[9] = target: GlcNAc(a1-3)Gal(b1-4)GlcNAc
Summary of the method: as §1

[10] = target: GlcNAc(a1-4)Gal(b1-3)GlcNAc
Summary of the method: as §1

[11] = target: GlcNAc(a1-4)Gal(b1-4)GalNAc
Summary of the method: as §1

[12] = target: GlcNAc(a1-4)Gal(b1-4)GlcNAc
Summary of the method: as §1

[13] = target: GlcNAc(a1-4)Gal(b1-4)GlcNAc(b1-3)Gal(b1-4)Glc
Summary of the method: as §1

[14] = target: GlcNAc(a1-4)Gal(b1-4)GlcNAc(b1-3)Gal(b1-4)GlcNAc
Summary of the method: as §1

[15] = target: GlcNAc(a1-4)Gal(b1-4)GlcNAc(b1-3)Gal(b1-4)GlcNAc(b1-3)Gal(b1-4)GlcNAc
Summary of the method: as §1

[16] = target: GlcNAc(a1-4)Gal(b1-4)GlcNAc(b1-3)Gal(b1-4)[Fuc(a1-3)]GlcNAc(b1-3)Gal(b1-4)[Fuc(a1-3)]GlcNAc
Summary of the method: as §1

[17] = target: GlcNAc(a1-6)Gal(b1-4)GlcNAc
Summary of the method: as §1

[18] = target: GlcNAc(b1-2)Gal(b1-3)GalNAc
Summary of the method: as §1

[19] = target: GlcNAc(b1-2)Man(a1-3)[GlcNAc(b1-2)Man(a1-6)]Man(b1-4)GlcNAc(b1-4)GlcNAc
Summary of the method: as §1

[20] = target: GlcNAc(b1-2)Man(a1-3)[GlcNAc(b1-2)Man(a1-6)]Man(b1-4)GlcNAc(b1-4)[Fuc(a1-6)]GlcNAc
Summary of the method: as §1

[21] = target: GlcNAc(b1-2)Man(a1-3)[GlcNAc(b1-4)][GlcNAc(b1-2)Man(a1-6)]Man(b1-4)GlcNAc(b1-4)GlcNAc
Summary of the method: as §1

[22] = target: GlcNAc(b1-2)Man(a1-3)[GlcNAc(b1-4)][GlcNAc(b1-2)Man(a1-6)]Man(b1-4)GlcNAc(b1-4)[Fuc(a1-6)]GlcNAc
Summary of the method: as §1

[23] = target: GlcNAc(b1-2)[GlcNAc(b1-4)]Man(a1-3)[GlcNAc(b1-2)Man(a1-6)]Man(b1-4)GlcNAc(b1-4)GlcNAc
Summary of the method: as §1

[24] = target: GlcNAc(b1-2)[GlcNAc(b1-4)]Man(a1-3)[GlcNAc(b1-4)][GlcNAc(b1-2)Man(a1-6)]Man(b1-4)GlcNAc(b1-4)GlcNAc
Summary of the method: as §1

[25] = target: GlcNAc(b1-2)[GlcNAc(b1-4)]Man(a1-3)[GlcNAc(b1-4)][GlcNAc(b1-2)[GlcNAc(b1-6)]Man(a1-6)]Man(b1-4)GlcNAc(b1-4)GlcNAc
Summary of the method: as §1

[26] = target: GlcNAc(b1-2)[GlcNAc(b1-4)]Man(a1-3)[GlcNAc(b1-4)][GlcNAc(b1-2)[GlcNAc(b1-6)]Man(a1-6)]Man(b1-4)GlcNAc(b1-4)[Fuc(a1-6)]GlcNAc
Summary of the method: as §1

[27] = target: GlcNAc(b1-2)[GlcNAc(b1-6)]Man(a1-6)[GlcNAc(b1-2)Man(a1-3)]Man(b1-4)GlcNAc(b1-4)GlcNAc
Summary of the method: as §1

[28] = target: GlcNAc(b1-2)[GlcNAc(b1-6)]Man(a1-6)[GlcNAc(b1-2)Man(a1-3)]Man(b1-4)GlcNAc(b1-4)[Fuc(a1-6)]GlcNAc
Summary of the method: as §1

[29] = target: GlcNAc(b1-2)[GlcNAc(b1-6)]Man(a1-6)[GlcNAc(b1-4)][GlcNAc(b1-2)Man(a1-3)]Man(b1-4)GlcNAc(b1-4)GlcNAc
Summary of the method: as §1

GlcNAc(b1-3)Fuc = target: GlcNAc(b1-3)Fuc
Summary of the method: as §1

GlcNAc(b1-3)Gal = target: GlcNAc(b1-3)Gal
Summary of the method: as §1

Binder: APVPVTKLVCDGDTYKCTAYLDFGDGRWVAQWDTNVFHTG [PhoSpL (Pholiota squarrosa)]
- glycan array binding signal (z-score) (GalNAc(b1-4)GlcNAc): -0.203
- glycan array binding signal (z-score) [1]: -0.272
- glycan array binding signal (z-score) [2]: 1.41
- glycan array binding signal (z-score) [3]: -0.043
- glycan array binding signal (z-score) (GalNAc(b1-4)GlcNAc6S): 0.542
- glycan array binding signal (z-score) (GalNAc(b1-6)GalNAc): -0.175
- glycan array binding signal (z-score) (GalNAc3S(b1-4)GlcNAc): -0.197
- glycan array binding signal (z-score) (GalNAc3S(b1-4)GlcNAc3S): -0.287
- glycan array binding signal (z-score) [4]: -0.027
- glycan array binding signal (z-score) (GalNAc4S6S(b1-4)GlcNAc): 0.039
- glycan array binding signal (z-score) (GalNAc6S(b1-4)GlcNAc): 0.332
- glycan array binding signal (z-score) (Glc(a1-4)Glc): 0.172
- glycan array binding signal (z-score) [5]: -0.783
- glycan array binding signal (z-score) (Glc(a1-6)Glc(a1-6)Glc): 0.306
- glycan array binding signal (z-score) [6]: 0.27
- glycan array binding signal (z-score) (Glc(b1-4)Glc): 0.154
- glycan array binding signal (z-score) (Glc(b1-6)Glc): -0.373
- glycan array binding signal (z-score) (GlcA(b1-3)Gal): -0.094
- glycan array binding signal (z-score) (GlcA(b1-3)GlcNAc): -0.562
- glycan array binding signal (z-score) (GlcA(b1-6)Gal): 0.147
- glycan array binding signal (z-score) [7]: -0.16
- glycan array binding signal (z-score) [8]: -0.416
- glycan array binding signal (z-score) [9]: -0.459
- glycan array binding signal (z-score) [10]: -0.307
- glycan array binding signal (z-score) [11]: 0.004
- glycan array binding signal (z-score) [12]: -1.04
- glycan array binding signal (z-score) [13]: -0.996
- glycan array binding signal (z-score) [14]: -0.245
- glycan array binding signal (z-score) [15]: -0.567
- glycan array binding signal (z-score) [16]: 0.068
- glycan array binding signal (z-score) [17]: -0.158
- glycan array binding signal (z-score) [18]: 0.026
- glycan array binding signal (z-score) [19]: -0.238
- glycan array binding signal (z-score) [20]: 4.77
- glycan array binding signal (z-score) [21]: -0.516
- glycan array binding signal (z-score) [22]: 0.877
- glycan array binding signal (z-score) [23]: -0.235
- glycan array binding signal (z-score) [24]: -0.113
- glycan array binding signal (z-score) [25]: -0.367
- glycan array binding signal (z-score) [26]: 0.301
- glycan array binding signal (z-score) [27]: -0.309
- glycan array binding signal (z-score) [28]: 4.35
- glycan array binding signal (z-score) [29]: -0.268
- glycan array binding signal (z-score) (GlcNAc(b1-3)Fuc): -0.421
- glycan array binding signal (z-score) (GlcNAc(b1-3)Gal): -0.377
